Measured values published in PubChem BioAssay AID485360 (National Center for Advancing Translational Sciences (NCATS), 2010).
The whole screen tested about 230,000 compounds, of which about 1,500 (0.65%) were called active. The inconclusive results got no clear call from the source; some entries with a clear call stand among them for comparison. Calls come from the whole dose curve; as a rule, active = well fitted inhibition curve with a large enough effect; inconclusive = small, poorly fitted or top-dose-only effect; inactive = no such curve, though single readings can be large or run the other way. Potencies of inconclusive entries are doubtful fits and often do not repeat.

What follows are compounds tested against Lethal(3)malignant brain tumor-like protein 1 (Homo sapiens) (UniProt Q9Y468) (assay: qHTS Assay for the Inhibitors of L3MBTL1). Settings: AlphaScreen L3MBTL1–H3K9me1 peptide binding; activity, negative = inhibition: at 57.1 µM (top of the series).
Method in brief: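 Read-out is AlphaScreen signal from streptavidin donor and nickel chelate acceptor beads (10 ug/mL final each) bridging L3MBTL1 (50 nM) and biotinylated K9-monomethylated H3(1-15) peptide (75 nM), after 30 min compound exposure at room temperature.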
% is set by controls: 0 for no effect and ±100 for the full control effect; potency is the fitted concentration of half-maximal effect; tags give direction and shape of the fitted curve.
Note: nearly all actives have a fitted effect of over 60% in size.

Sequence of UniProt Q9Y468 (Q9Y468 whole entry, looked up): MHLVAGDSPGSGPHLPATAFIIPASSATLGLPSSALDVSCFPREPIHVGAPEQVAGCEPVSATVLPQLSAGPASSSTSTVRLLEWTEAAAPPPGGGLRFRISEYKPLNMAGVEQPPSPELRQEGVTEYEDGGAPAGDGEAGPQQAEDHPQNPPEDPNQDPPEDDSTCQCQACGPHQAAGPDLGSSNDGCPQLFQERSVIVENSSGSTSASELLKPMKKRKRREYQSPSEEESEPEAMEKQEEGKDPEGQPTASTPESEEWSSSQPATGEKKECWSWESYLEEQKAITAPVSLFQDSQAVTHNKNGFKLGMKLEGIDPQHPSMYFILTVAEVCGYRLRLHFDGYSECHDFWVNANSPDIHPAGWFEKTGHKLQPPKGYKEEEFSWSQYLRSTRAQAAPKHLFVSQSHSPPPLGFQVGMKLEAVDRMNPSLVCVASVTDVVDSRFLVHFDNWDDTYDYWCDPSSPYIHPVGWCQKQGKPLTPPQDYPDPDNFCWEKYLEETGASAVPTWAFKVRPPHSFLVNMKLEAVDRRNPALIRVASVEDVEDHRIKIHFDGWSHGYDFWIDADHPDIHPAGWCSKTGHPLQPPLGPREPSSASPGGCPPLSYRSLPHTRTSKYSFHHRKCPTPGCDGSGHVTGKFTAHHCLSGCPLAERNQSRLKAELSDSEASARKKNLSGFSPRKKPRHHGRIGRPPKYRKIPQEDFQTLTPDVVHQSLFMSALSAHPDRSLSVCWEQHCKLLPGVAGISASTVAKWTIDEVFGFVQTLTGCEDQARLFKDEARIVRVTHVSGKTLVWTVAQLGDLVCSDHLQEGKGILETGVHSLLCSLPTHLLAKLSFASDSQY

| Structure (SMILES) | Potency | activity, negative = inhibition |
| --- | --- | --- |
| CCOC(=O)C1=C(CN2CCCCCC2)NC(=O)NC1c1cccc([N+](=O)[O-])c1 (stereo not given) | inconclusive: 0.631 µM [inhibitor, full curve, poor fit] | – |
| COc1cc(-c2nc3ccc(C)cn3c2Nc2ccc3c(c2)OCCO3)ccc1O | inconclusive: 22.4 µM [inhibitor, partial curve] | – |
| Nc1c(Cl)cc(S(N)(=O)=O)cc1S(N)(=O)=O | inconclusive: 35.5 µM [inhibitor, single point] | – |
| O=C(NCc1ccccc1CN1CCCC1)c1cccc(S(=O)(=O)N2CCCC2)c1 | inconclusive: 31.6 µM [inhibitor, single point] | – |
| c1ccc(CNCCN2CCNCC2)nc1 | inconclusive: 31.6 µM [inhibitor, single point] | – |
| Cc1ccc(NS(=O)(=O)c2cc([N+](=O)[O-])ccc2NNC(=S)Nc2cc(C)ccc2C)c(C)c1 | inconclusive: 28.2 µM [inhibitor, partial curve] | – |
| CC1CCN(C(=O)C2CCN(CC(C)c3ccccc3)CC2)CC1 (stereo not given) | – | inactive: 0.481% |
| CCOc1cc(/C=N/N=C2/NC(=O)C(CC(=O)O)S2)ccc1OS(=O)(=O)c1ccc(C)cc1 (stereo not given) | – | inactive: -0.453% |
| Cc1ccc(S(=O)(=O)N2CC(O)C[C@H]2C(=O)OCC(=O)Nc2ccc(N3CCCCC3)cc2)cc1C (stereo not given in full) | inconclusive: 31.6 µM [inhibitor, single point] | – |
| CCN(CC)S(=O)(=O)c1ccc(C)c(NC(=S)N2CCN(C/C=C/c3ccccc3)CC2)c1 | inconclusive: 0.316 µM [inhibitor, full curve, poor fit] | – |
| COC(=O)C1=C(C(=O)OC)C2(OC1c1ccccc1C)C(=O)c1ccccc1C2=O (stereo not given) | inconclusive: 3.55 µM [inhibitor, single point] | – |
| CCN(CC)S(=O)(=O)c1ccc(Cl)c(NC(=S)NC(=O)C2CCCC2)c1 | – | inactive: -2.64% |
| COC(=O)Cc1c(C)c2ccc(OCC(=O)NCc3ccc4c(c3)OCO4)cc2oc1=O | inconclusive: 2.51 µM [inhibitor, partial curve] | – |
| CC1CN(Cc2csc(-c3ccc(Cl)cc3)n2)CC(C)O1 (stereo not given) | – | inactive: 4.5% |
| Cc1ccc(/C=C/C(=O)OCC(=O)NC(=O)NCc2ccco2)cc1 | inconclusive: 25.1 µM [inhibitor, partial curve] | – |
| COC(=O)c1sc(NC(=S)NC(=O)c2cc(OC)c(OC)c(OC)c2)nc1C | – | inactive: 3.83% |
| Cc1[nH]c2c([N+](=O)[O-])cccc2c1C | inconclusive: 14.1 µM [inhibitor, single point] | – |
| Cc1c(C(=O)O)cnc2c([N+](=O)[O-])cnn12 | inconclusive: 35.5 µM [inhibitor, single point] | – |
| CCOCCCNC(=O)c1c[nH]c2ccc(S(=O)(=O)Nc3cccc(OC)c3)cc2c1=O | inconclusive: 39.8 µM [inhibitor, single point] | – |
| CCOC(=O)C1CCN(c2nc3ccccc3nc2C(C#N)C(=O)NCCc2ccccc2)CC1 (stereo not given) | inconclusive: 25.1 µM [inhibitor, single point] | – |
| Cc1nnc(SCC(=O)N2CCN(C(=O)c3ccco3)CC2)n1-c1ccccc1 | inconclusive: 6.31 µM [inhibitor, single point] | – |
| CC(Oc1ccc(Cl)cc1Cl)C(=O)NNC(=O)C(=O)N1CCCCC1 (stereo not given) | inconclusive: 39.8 µM [inhibitor, single point] | – |
| O=C(O)CSc1ncccc1C(=O)O | – | inactive: -29.4% |
| Nc1ccc(N2CCCCC2)c2nonc12 | inconclusive: 14.1 µM [inhibitor, partial curve] | – |

| Structure (SMILES) | Potency | activity, negative = inhibition |
| --- | --- | --- |
| COc1cccc(C2C3=C(CCCC3=O)NC3=C2C(=O)c2ccccc23)c1 (stereo not given) | inconclusive: 10 µM [inhibitor, partial curve, poor fit] | – |
| C[C@@H](CN1C2=NC[C@H](C)N2C[C@H]1Cc1ccc(O)cc1)NC(=O)CCC1CCCCC1 | – | inactive: -2.34% |
| COc1ccc(CSCCc2n[nH]c(=S)n2-c2ccccc2)cc1 | inconclusive: 0.631 µM [inhibitor, full curve, poor fit] | – |
| COc1ccc(CCC(=O)NCc2ccco2)cc1 | inconclusive: 31.6 µM [inhibitor, single point] | – |
| C=CC[n+]1c(-c2ccccc2)csc1NC(C)(C)C | inconclusive: 8.91 µM [inhibitor, partial curve] | – |
| O=C(NCCCN1CCCC1)c1cccc(N2CCCC2=O)c1 | inconclusive: 11.2 µM [inhibitor, partial curve, poor fit] | – |
| CCC(=O)N1N=C(c2ccc(C)cc2)CC1c1ccco1 (stereo not given) | – | inactive: -14.4% |
| C=CCn1nc([N+](=O)[O-])nc1Sc1cccc2cccnc12 | active: 28.2 µM | – |
| COc1ccc(OCCNS(=O)(=O)c2cccc([N+](=O)[O-])c2)cc1 | inconclusive: 44.7 µM [inhibitor, single point] | – |
| Oc1ccc(/C=N/N2CCN(C3c4ccccc4-c4ccccc43)CC2)c(O)c1 | inconclusive: 20 µM [inhibitor, single point] | – |
| CCCCC(=O)NC(c1ccc(N(CC)CC)cc1)c1ccc2cccnc2c1O (stereo not given) | inconclusive: 35.5 µM [inhibitor, single point] | – |
| Cc1cc(C(=O)COC(=O)c2cc(Cl)c(O)c(Cl)c2)c(C)n1C | active: 28.2 µM | – |
| C=CCN(c1ccccc1)S(=O)(=O)c1cc2c(cc1C)N(C)CCO2 | inconclusive: 22.4 µM [inhibitor, partial curve] | – |
| COC(=O)CSc1nnc(-c2ccccn2)n1N | inconclusive: 28.2 µM [inhibitor, single point] | – |
| N#CC1=C(N)Oc2cc3ccccc3cc2C1c1cccs1 (stereo not given) | – | inactive: -1.11% |
| NS(=O)(=O)c1ccc(NC(=O)COC(=O)C2CC2)cc1 | – | inactive: 3.6% |
| O=C(N/N=C/c1cc(Br)ccc1O)C(c1ccncc1)N1CCOCC1 (stereo not given) | inconclusive: 31.6 µM [inhibitor, single point] | – |
| O=C(COc1cccc2cccnc12)Nc1ccccc1 | inconclusive: 25.1 µM [inhibitor, single point] | – |
| COC(=O)C1C2C=CC3(CN(CCc4ccccc4)C(=O)C13)O2 (stereo not given) | inconclusive: 0.794 µM [inhibitor, single point] | – |
| Nc1nc(=S)c2ncn([C@@H]3O[C@H](CO)[C@@H](O)[C@H]3O)c2[nH]1 | – | inactive: -1.11% |
| COc1ccc(CCN(C)Cc2cccc3ccccc23)cc1OC | – | inactive: 1.63% [at 2.29 µM] |
| COc1cc(/C=N/NC(=O)CCN2CCN(C(c3ccccc3)c3ccccc3)CC2)ccc1O | inconclusive: 0.708 µM [inhibitor, single point] | – |
| O=C(O)Cc1ccc(NC(=O)C2CC=CCC2C(=O)O)cc1 (stereo not given) | inconclusive: 35.5 µM [inhibitor, single point] | – |
| COc1ccc(C(=O)NC(=S)NCc2ccco2)cc1OC | inconclusive: 6.31 µM [inhibitor, single point] | – |

| Structure (SMILES) | Potency | activity, negative = inhibition |
| --- | --- | --- |
| Nc1cc2c(cc1C(=O)c1cccc(Br)c1)OCCO2 | inconclusive: 14.1 µM [inhibitor, partial curve] | – |
| CC1=C(CC(=O)c2ccccc2)C(=O)c2ccccc2C1=O | inconclusive: 35.5 µM [inhibitor, single point] | – |
| O=C1CCCC/C1=N\Nc1ccc(C2CCCCC2)cc1 | – | inactive: 2.79% |
| O=C1c2ccccc2NC(c2ccc(-c3ccccc3F)o2)N1O (stereo not given) | – | inactive: 3.71% |
| S=c1[nH]nc(-c2ccccc2)o1 | – | inactive: -3.56% |
| CC(/C=N/NC(=O)CSc1nnc(SCc2ccccc2)s1)=C\c1ccco1 | inconclusive: 17.8 µM [inhibitor, partial curve] | – |
| Cc1cccc2sc(NNC(=O)c3ccc(S(=O)(=O)N4CCc5ccccc5C4)cc3)nc12 | inconclusive: 3.16 µM [inhibitor, full curve] | – |
| CCOc1ccc(OCc2ccc(C(=O)N/N=C(\C)c3ccccn3)cc2)cc1 | – | inactive: -23.7% |
| c1ccc(OCCOc2ncnc3ccccc23)cc1 | inconclusive: 28.2 µM [inhibitor, single point] | – |
| COc1ccccc1N=Nc1c(C)noc1C | inconclusive: 17.8 µM [inhibitor, partial curve] | – |
| COc1ccccc1Nc1nc(N)nc(CN2CCN(Cc3ccccc3)CC2)n1 | inconclusive: 28.2 µM [inhibitor, single point] | – |
| Cc1ccccc1NC(=O)CSC(N)=O | – | inactive: 10.8% |
| O=C(Cn1ncc2c1-c1ccccc1OC2)N1CCN(c2ccccn2)CC1 | inconclusive: 39.8 µM [inhibitor, single point] | – |
| CCn1c2ccccc2c2cc(NC(=O)CSc3nnc(C4CC4)n3Cc3ccco3)ccc21 | inconclusive: 35.5 µM [inhibitor, single point] | – |
| Cc1ccccc1Cn1c(=O)n(C)c(=O)c2sccc21 | – | inactive: -3.61% |
| COc1ccc(N=c2cc(-c3ccc(OC)cc3)oc3ccccc23)cc1 | inconclusive: 39.8 µM [inhibitor, single point] | – |
| CC(C)C(=O)NC(c1cccc([N+](=O)[O-])c1)c1ccc2cccnc2c1O (stereo not given) | – | inconclusive: -56.5% [inhibitor] |
| O=C(/C=C/c1ccco1)N1CCN(S(=O)(=O)c2cccs2)CC1 | inconclusive: 31.6 µM [inhibitor, single point] | – |
| O=C1ON=C(c2ccccc2)/C1=C\c1ccco1 | active: 22.4 µM | – |
| O=C(COc1ccc2oc(-c3ccccc3)cc(=O)c2c1)NCc1ccco1 | inconclusive: 28.2 µM [inhibitor, single point] | – |
| Cc1c(OCC(F)(F)F)ccnc1CS(=O)c1nc2ccccc2[nH]1 (stereo not given) | – | inactive: -17.3% |
| Cc1ccc(CN2C(=O)N/C(=C\c3ccc(-c4ccc(C(=O)O)cc4C)o3)C2=O)cc1 | inconclusive: 28.2 µM [inhibitor, single point] | – |
